These results are taken from PubChem BioAssay AID1240 (Sanford-Burnham Center for Chemical Genomics, 2008).

“And” between values parts separate entries of the source, which are not always exact repeats. Identical values can stand only once. Out of some 50,000 compounds screened, about 800 (1.6%) showed an effect of 50% or more. The list shows a part of the results.

For the assay, the target named is Bcl-2-like protein 10 (Homo sapiens) (UniProt Q9HD36). The experiment in a line: TR3 peptide-Bcl-B binding displacers, biochemical primary FP assay, phenotype converters (AID 1240).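 Also: 0% = Bcl-B with tracer peptide and DMSO and 100% = tracer peptide lacking Bcl-B.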 The settings on record: GST-Bcl-B / FITC-TR3 peptide fluorescence polarization; stronger effect = higher value; compound at 3.75 mg/L. (In general: In fluorescence polarisation assays a small probe gives low polarisation when free and higher when bound to something large.)
UniProt Q9HD36, sequence (Q9HD36 whole entry, looked up): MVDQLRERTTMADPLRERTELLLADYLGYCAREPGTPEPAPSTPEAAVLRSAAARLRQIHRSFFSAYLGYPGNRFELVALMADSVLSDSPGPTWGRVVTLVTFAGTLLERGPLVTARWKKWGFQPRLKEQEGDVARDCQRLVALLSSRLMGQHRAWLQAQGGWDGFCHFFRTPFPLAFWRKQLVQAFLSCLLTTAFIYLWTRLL
Take `CCOc1cc(C2CC(=O)Nc3c2ccc2ccccc32)cc(Br)c1OC` (stereo not given): the displacement was -0.9%.

`Cc1csc(NC(=O)c2ccc([N+](=O)[O-])cc2Cl)n1`: the displacement amounted to 7.8%.

In the case of `CC1=C(C(=O)Nc2ccccc2)C(c2ccc(N(C)C)cc2)NC(=S)N1` (stereo not given), the displacement was -2.1%.

Take `CN1CCN(NC(=O)CN2C(=O)S/C(=C/c3ccccc3)C2=O)CC1`: the displacement was -4.3%.

As to `CCOc1ccc(CN2CCN(C(=O)c3ccc([N+](=O)[O-])cc3)CC2)cc1`, the displacement was -2.3%.

Consider `COC(=O)c1ccccc1NC(=O)COc1cc(C)cc(C)c1`, for which the displacement is 1.7%.

Take `CCSCCOC(=O)C1=C(C)N(C)C(=O)NC1c1ccccc1[N+](=O)[O-]` (stereo not given): the displacement was 7.3%.

With `COC(=O)C1=C(C)N(c2ccc(Cl)cc2)C(=O)/C1=C\c1ccc(O)c(OC)c1`, the displacement was determined as 21.7%.

In the case of `Cc1ccc(S(=O)(=O)N2CCN(C3CCCCC3)CC2)cc1`, the displacement was -8.7%.

In the case of `COc1ccc2c(c1)CC/C(=C\c1ccc(Br)cc1)C2=O`, the displacement stood at 9.8%.

For the compound `O=C(c1ccc(Cl)cc1)N1CCN(c2ccccn2)CC1`, the displacement was -4.5%.

As to `O=S1(=O)c2ccccc2-c2cc(-c3nc(C4=CNC5C=CC=CC45)[nH]c3-c3ccccc3)ccc21` (stereo not given), the displacement is -37.2%.

On to `COc1ccc(C(=O)Nc2ccccc2)cc1S(=O)(=O)NCc1ccccc1`, for which the displacement was -14.9%.

Take `COc1cc(NC(=O)c2nn3c(c2Cl)NC(c2cccs2)CC3C(F)(F)F)cc([N+](=O)[O-])c1` (stereo not given): the displacement amounted to 2.7%.

As for `CCC(Nc1ccccc1)C(=O)N/N=C/c1cc([N+](=O)[O-])ccc1O` (stereo not given), the displacement is -13.2%.

As for `COCCN1C(=O)c2cccc3cccc(c23)C1=O`, the displacement was 11.4%.

With `COc1ccc(OC)c(NC(=O)CC(c2ccccc2)c2ccccc2)c1`, the displacement is -7.9%.

On to `CCc1ccccc1N1C(=O)/C(=C/c2cc(C)n(C)c2C)C(=O)NC1=S`, for which the displacement came to 8.1%.

Consider `O=C1C=C/C(=N\S(=O)(=O)c2ccc3ccccc3c2)C=C1Br`, for which the displacement was determined as 0.7%.

As for `CCCNC1=C(Cl)C(=O)c2ccccc2C1=O`, the displacement turned out to be 10%.

Take `O=c1cc(-c2ccccc2)c2cc(Cl)ccc2[nH]1`: the displacement is 7.9% and 7.4%.

`CC(=O)NC1C(O)CC2C3CC=C4CC(O)CCC4(C)C3CCC21C` (stereo not given): the displacement was -14.1%.

Turning to `CCCOC(=O)c1cccc(NC(=O)/C=C/c2ccc(OC)c(Br)c2)c1`, the displacement is 10.9%.

Consider `CCOC(=O)C(CCCCCOc1c(C)cccc1C)C(=O)OCC`, for which the displacement amounted to 16.9%.

Consider `CCCCCC(=O)Nc1ccc(S(=O)(=O)Nc2cc(OC)nc(OC)n2)cc1`, for which the displacement is 9.8%.

Turning to `CC(C)(C)c1nnc(NC(=O)c2cccs2)s1`, the displacement came to 8.7%.

As for `O=C(CSc1nc2ccc([N+](=O)[O-])cc2[nH]1)c1ccc(F)cc1`, the displacement turned out to be 1.4%.

With `COc1cc(C(=O)Nc2ccc(S(=O)(=O)NC(C)=O)cc2)cc(OC)c1OC`, the displacement is -4.9%.

For the compound `O=C(COc1cccc2ccccc12)NNC(=O)C1CCCO1` (stereo not given), the displacement is -0.3%.

Regarding `COc1ccc(C(=O)Nc2c(C)ccc3nsnc23)cc1Br`, the displacement turned out to be 0.3%.

As for `Cc1c(C#N)c(=O)ncn1-c1ccc(Br)cc1`, the displacement is -7.9%.

Consider `CN(C)c1ccc(C(C2=C(O)CC(C)(C)CC2=O)C2=C(O)CC(C)(C)CC2=O)cc1`, for which the displacement is 2.2%.

As to `O=C(CSc1nc2ccccc2[nH]1)OCc1ccccc1`, the displacement came to 9.5%.

As for `Cc1ccc(O)c(C=Nc2c(C)nn(C)c2C)c1`, the displacement was found to be 10.6%.

`CCOC(=O)Nc1sc(C)c(CC)c1C(=O)OC`: the displacement came to 3.7%.

Take `O=[N+]([O-])c1c(N2CCCC2)ncnc1N1CCCC1`: the displacement was -5.5%.

With `CCOC(=O)C1=C(C)N=c2s/c(=C\c3ccc(OC)c(O)c3)c(=O)n2C1c1cccc(OC)c1` (stereo not given), the displacement is 1.7%.

In the case of `O=C(NCc1ccc2c(c1)OCO2)C(O)(c1ccccc1)c1ccccc1`, the displacement is -3.6%.

As for `O=C(O)c1cccc(C(=O)c2ccc3c(c2)C(=O)N(c2cccnc2)C3=O)c1`, the displacement is -10.2%.

For the compound `CCOC(=O)c1c(NC(=O)/C=C/C(=O)O)sc2c1CCC(C(C)(C)C)C2` (stereo not given), the displacement is 9.1%.

With `COc1ccc(OC)c(CNc2cccc(C)c2)c1`, the displacement amounted to 9.5%.

Take `CS(=O)(=O)N(Cc1ccc(C(=O)NCC2CCCO2)cc1)c1ccccc1` (stereo not given): the displacement was determined as 13.8%.

With `Cc1c(Cl)cccc1NC(=O)C(=O)NNS(=O)(=O)c1ccc(F)cc1`, the displacement is -10.7%.

As to `O=C(Cc1nc2ccccc2[nH]1)NCc1ccccc1`, the displacement was -10.8%.

Regarding `CCOc1ccc(-c2c(C)sc(N)c2C(=O)OC)cc1`, the displacement was -5.1%.

Regarding `CC(CC(=O)O)C(=O)c1ccc(Cl)c([N+](=O)[O-])c1` (stereo not given), the displacement is -10.1%.

As to `COCCOC(=O)C1=C(C)NC(C)=C(C(=O)OCCOC)C1c1ccc(-c2cccc(Cl)c2Cl)o1`, the displacement came out at 13.7%.

Consider `Cc1nc(-c2ccccc2)nc(N/N=C/c2ccccc2[N+](=O)[O-])c1C`, for which the displacement is -10.3%.

As to `Cc1cc(/C=c2\sc3nc4ccccc4n3c2=O)c(C)n1-c1cccc([N+](=O)[O-])c1`, the displacement was -10.2%.

As to `COc1ccc(-n2c(O)cnc2Nc2nc(C)cc(C)n2)cc1OC`, the displacement stood at 5.7%.

Take `Cc1ccc2nc(C)c3c(c2c1)OC(C)C3` (stereo not given): the displacement is -16.4%.

With `O=[N+]([O-])c1ccc(Cl)cc1NCc1ccccc1`, the displacement worked out at 4.9%.

Take `Cc1ccccc1OCC(=O)Nc1ccc(F)cc1F`: the displacement is -1.5%.

`O=c1[nH]cnc2nc(N3CCCCC3)[nH]c12`: the displacement was found to be 8.6%.

Take `CN1C(=O)/C(=C2\SC(=S)N(Cc3ccco3)C2=O)c2ccccc21`: the displacement amounted to 9.8%.

Take `Clc1ccc(CNc2nc3ccccc3n2CCOc2ccccc2)cc1`: the displacement is -6%.

For `C=CCN1C(=O)/C(=C\c2cc(C)n(-c3ccc(C)cc3)c2C)C(=O)NC1=S`, the displacement was -6.4%.

Turning to `COc1ccc(N(CC(=O)NCc2ccc(C)cc2)S(C)(=O)=O)cc1`, the displacement was -3%.

As to `O=c1[nH]c2ccc(NS(=O)(=O)c3ccc(F)cc3)cc2[nH]1`, the displacement came to 6.1%.

`COCCCNC(=O)c1ccccc1[N+](=O)[O-]`: the displacement was found to be 3.3%.

Regarding `Cc1nn(CC(=O)NCCN2CCOCC2)c(C)c1[N+](=O)[O-]`, the displacement came out at 4.9%.

In the case of `NC(=O)NC(c1ccccc1)c1ccccc1I` (stereo not given), the displacement was -2.2%.

As to `Cc1cc(C)n(-c2nc(NC(C)(C)C)nc(NC(C)(C)C)n2)n1`, the displacement turned out to be 10.5%.

For the compound `CCOC(=O)c1c(NC(=O)C2CCCCC2)sc2c1CCC2`, the displacement was 7%.

`O=C(COc1ccc(Br)cc1)NC12CC3CC(CC(C3)C1)C2`: the displacement was -5.7%.

Turning to `COc1ccc(OCC(=O)N/N=C/c2ccc(OC)c(Br)c2)cc1`, the displacement was 2.8%.

Consider `Cc1c(Cl)c(=O)oc2cc(OCc3ccc(Cl)cc3)ccc12`, for which the displacement came to 11.4%.

Regarding `COc1ccccc1CN1CCN(C2CCCCC2)CC1`, the displacement was -14.3%.

With `O=C(CCN1C(=O)/C(=C\c2cccs2)SC1=S)Nc1nccs1`, the displacement worked out at 120%.

Turning to `CCOc1ccc2nc(SCc3ccc(OC)c(F)c3)sc2c1`, the displacement is -4.7%.

With `CCOC(=O)c1sc(NC(=O)C(CC)c2ccccc2)c(C(N)=O)c1C` (stereo not given), the displacement is -9.2%.

Regarding `O=C(c1ccncc1)N1N=C(c2ccncc2)CC1(O)C(F)(F)F` (stereo not given), the displacement was -15.2%.

For the compound `CCOC(=O)c1c(NC(=O)Cc2cccs2)sc(C(=O)Nc2cc(C(F)(F)F)ccc2Cl)c1C`, the displacement worked out at 7.3%.

On to `CCOC(=O)c1cnn2c(C(F)(F)F)c3c(nc12)-c1ccccc1CC3`, for which the displacement was -3.3%.

Turning to `N#C/C(=C/c1ccc(Cl)cc1)C(=O)Nc1ccc(O)cc1`, the displacement stood at 7.1%.

Take `Cc1ccc2c(Cl)c(C(=O)Nc3ccc(Br)cc3F)sc2c1`: the displacement was -21.3%.

Consider `CC(C)(C)NCC(O)COc1ccc(Cl)cc1` (stereo not given), for which the displacement is 4.8%.

On to `CC1=CC(C)C2COC(c3ccccc3O)C1C2` (stereo not given), for which the displacement is -14.6%.

As to `CCOC(=O)c1ccc(N2NC(=O)/C(=C/c3ccc(O)cc3)C2=O)cc1`, the displacement was determined as 11.1%.

Turning to `CCN1C(=O)c2cccc3c(NC(=O)c4cc([N+](=O)[O-])ccc4Cl)ccc1c23`, the displacement is -1.9%.

Take `CCNC(=NCCc1ccc(OC)c(OC)c1)SC1CC(=O)N(c2ccccc2F)C1=O` (stereo not given): the displacement was found to be 0.1%.

In the case of `COc1cccc(/C=C2\SC(=S)N(CC(=O)NNC(=O)c3ccccc3OC)C2=O)c1`, the displacement came out at 9.3%.

On to `O=C(O/N=C(/c1ccc(Br)cc1)N1CCOCC1)c1ccccc1`, for which the displacement came to 10.1%.

Regarding `O=C(COC(=O)c1cccc([N+](=O)[O-])c1)c1ccc(Br)cc1`, the displacement is -4.2%.

For the compound `COc1ccc(/C=N\NC(=O)CNc2ccc(C)cc2)cc1Br`, the displacement was 19%.

On to `CC1=C(C(=O)OC2CCC(C)CC2)C(c2ccccc2)NC(=O)N1` (stereo not given), for which the displacement is -6%.

For the compound `COc1cc2c(cc1OC)C(CN1C(=O)c3ccccc3C1=O)=NC(C)(C)C2`, the displacement was 3%.

As for `O=C(Nc1cccc(Cl)c1Cl)c1ccccc1[N+](=O)[O-]`, the displacement is -4.8%.

Regarding `CCc1ccc(OCC(=O)Nc2cc3nn(-c4ccc(OC)cc4)nc3cc2C)cc1`, the displacement worked out at 5%.

For the compound `COc1cc(C2Nc3ccccc3C(=O)N2Cc2ccccc2)cc(OC)c1OC` (stereo not given), the displacement was 13.4%.

As to `COc1cc(/C=C2/C(C)=C(C#N)c3nc(N)c(C#N)c(C)c32)c([N+](=O)[O-])cc1OC`, the displacement is 11.9%.

`CC(C)C(=O)NS(=O)(=O)c1ccc(NC(=O)c2ccc(Cl)cc2)cc1`: the displacement turned out to be 8.6%.

With `Cc1ccc(NCC(=O)N/N=C\c2cc(Br)ccc2O)cc1`, the displacement is 5.9%.

For `CCOc1ccccc1OCCCCNC(C)(C)C`, the displacement was -11.4%.

Regarding `Cc1nn(-c2ccccc2)c(C)c1-c1cccc([N+](=O)[O-])c1`, the displacement amounted to 11.6%.

Regarding `CN(C)CCCNC1CCCCCCCCCCC1`, the displacement turned out to be 7.8%.

As to `Cc1cccc(C)c1NC(=S)NC(=O)c1ccco1`, the displacement is 14.1%.

As for `O=C1NC(=Nc2cccnc2)S/C1=C/C=C/c1ccccc1`, the displacement was 15.6%.

On to `CC(=O)Nc1ccc2nc(-c3ccc4nc(NC(C)=O)sc4c3)[nH]c2c1`, for which the displacement was 33%.

Turning to `CCOC(=O)C1CCN(S(=O)(=O)c2cccc3cccnc23)CC1`, the displacement is -16%.

For `CC(/C=N/NC(=O)c1cc(-c2ccccc2)n[nH]1)=C\c1ccccc1`, the displacement was -3.8%.

As to `COc1ccc(C(=O)N2N=C3CC(C)(C)OCC3C2c2ccc(OC)cc2)cc1` (stereo not given), the displacement came to 1.7%.

`O=[N+]([O-])c1ccc(N2CCN(S(=O)(=O)c3ccccc3)CC2)c(F)c1`: the displacement was determined as 6.5%.

For `Cc1[nH]c2ccccc2c1SCC(=O)O`, the displacement turned out to be 7.4%.

For `COc1cccc(/C=N/Nc2nc3nonc3nc2Nc2cccc(C)c2C)c1O`, the displacement was determined as 22.3%.

Regarding `CCOc1cc(/C=C2/C(=O)NN(c3ccc(I)cc3)C2=O)ccc1O`, the displacement came to 24.7%.

As to `Cc1ccnc(N/C=C/C(=O)c2ccc(Br)cc2)c1`, the displacement was found to be 23.3%.

Consider `CC(=O)c1ccc(N2C(=O)C=CC2=O)cc1`, for which the displacement was -14.5%.

Turning to `O=C(COc1ccc(Cl)cc1)N1CCN(C(=O)c2cccnc2)CC1`, the displacement was 0.4%.

As for `COc1cc(/C=C2\C(=O)NC(=O)N(c3cccc(Br)c3)C2=O)cc(Cl)c1O`, the displacement came out at 4.4%.
